Reference: paper PMC6919601, “Identification of Plasmodium dipeptidyl aminopeptidase allosteric inhibitors by high throughput screening” (PLoS ONE, 2019)
Screen size: about 110,000 compounds; about 230 (0.21%) showed an effect of 50% or more. This is one part of the list.

These compounds were tested against DPAP1 (Plasmodium falciparum, UniProt Q8IIJ9) (assay: primary screen, percent inhibition; read by cleavage of a fluorogenic dipeptide substrate; higher = more effect of the substance).
Design: species or system P. falciparum D10 trophozoite lysates; single well
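Note: 30 min substrate incubation versus DMSO and 10 µM JCP410 controls.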

DPAP1, sequence (Q8IIJ9 whole entry, looked up): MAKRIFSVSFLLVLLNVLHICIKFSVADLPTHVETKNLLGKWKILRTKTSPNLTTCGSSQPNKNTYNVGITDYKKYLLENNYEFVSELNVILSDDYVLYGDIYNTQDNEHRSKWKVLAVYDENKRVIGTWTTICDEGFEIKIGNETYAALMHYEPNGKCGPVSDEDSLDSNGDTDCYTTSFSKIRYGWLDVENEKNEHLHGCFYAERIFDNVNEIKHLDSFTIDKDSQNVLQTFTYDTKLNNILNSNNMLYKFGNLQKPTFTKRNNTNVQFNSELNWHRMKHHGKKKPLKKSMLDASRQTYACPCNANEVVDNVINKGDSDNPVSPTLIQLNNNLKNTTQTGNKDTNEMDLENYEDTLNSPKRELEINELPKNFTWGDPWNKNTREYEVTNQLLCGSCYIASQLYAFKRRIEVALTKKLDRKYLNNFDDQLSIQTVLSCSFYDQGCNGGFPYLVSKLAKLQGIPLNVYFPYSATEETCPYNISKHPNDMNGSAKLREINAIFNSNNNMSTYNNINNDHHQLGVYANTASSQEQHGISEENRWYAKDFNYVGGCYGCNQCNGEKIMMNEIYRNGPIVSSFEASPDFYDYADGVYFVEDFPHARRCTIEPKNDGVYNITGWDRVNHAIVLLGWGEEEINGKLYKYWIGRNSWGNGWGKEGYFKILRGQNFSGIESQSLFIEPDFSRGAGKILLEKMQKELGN

Structure (SMILES) | % Inhibition @ 10 uM
O=C(CCC(=O)N1Cc2ccccc2Oc2ncccc21)N1CCN(c2ccccn2)CC1 | 5.82%
CCOC(=O)c1cnc(SCc2ccccc2F)nc1N | -6.36%
CSc1cccc(NC(=O)CNS(=O)(=O)c2ccccc2)c1 | -4.4%
Cc1ccccc1OCc1nc(-c2ccc(-n3cccc3)cc2)no1 | -7.38%
CCOc1ccc2nc(N3CCCC(C(=O)N4CC(C)CC(C)C4)C3)sc2c1 (centres unmarked) | 1.8%
Cc1nn(C(C)C(=O)O)c2ccccc12 (centres unmarked) | 0.0198%
COc1ccccc1/C=C/c1nc(C#N)c(NCc2ccc(F)cc2)o1 | -6.29%
COc1ccc(OC)c(/C=C2\N=C(c3cc(Cl)ccc3Cl)OC2=O)c1 | -2.6%
Cc1ccccc1S(=O)Cc1ccc(C(=O)N2CCN(C(=O)c3ccco3)CC2)o1 (centres unmarked) | 2.83%
COc1ccc(CNC(C)C2COc3ccccc3O2)c(OC)c1 (centres unmarked) | -3.23%
CC(C)c1ccc(/C=C/C(=O)O)cc1 | -1.86%
FC(F)(F)c1cc(N2CCOCC2)nc(-c2ccccc2)n1 | 1.91%
O=C1c2cccnc2C(=O)N1Cc1ccc(F)cc1S(=O)(=O)N1CCN(C2CCCCC2)CC1 | 7.41%
Cc1ccc(C(=O)N/C(=C/c2ccc(Cl)cc2)C(=O)N2CCOCC2)cc1 | -1.52%
O=C1NC2(CCCCCC2)Cc2ccccc21 | 2.65%
CCn1c(C)nc2cc(S(=O)(=O)N3CCOCC3)ccc21 | -6.69%
COc1ccc(Cn2c(=O)oc3ccc(C)cc32)cc1OC | 0.983%
c1cncc(CNC23CC4CC(CC(C4)C2)C3)c1 | 4%
CN(C)c1nc(NC(C)(C)C)nc(NC(C)(C)C)n1 | -5.7%
CC1CCN(C(=O)CCc2nnc3n(CCc4ccccc4)c(=O)c4ccccc4n23)CC1 | 0.981%
Cc1ccccc1Cc1nc2ccccc2nc1O | -1.16%
Cc1cc(S(=O)(=O)N2CCC(n3c(O)nc4ccccc43)CC2)ccc1-n1cnnn1 | -0.671%
C#CCN1C(=O)c2ccccc2S1(=O)=O | 1.72%
COc1cccc(NC(=O)c2cccc(Cl)c2)c1 | 3.53%
CCc1nn(CC(=O)N2C(C)CCCC2C)c(=O)c2cc3occc3n12 (centres unmarked) | -2%
O=S(=O)(Nc1cccnc1)c1ccc2[nH]c3c(c2c1)CCCCC3 | 3.2%
COc1ccc(NCc2cc(Br)c(OC)c(OC)c2)cc1 | 6.01%
CCOc1ccc2nc(N3CCC(C(=O)NCCN4CCCCC4C)CC3)sc2c1 (centres unmarked) | 0.137%
c1ccc(OCCCCn2cnc3ccccc32)cc1 | 4.3%
